# Source: the supplement of paper PMC8728848
# Some of the results follow.
# B1: Epa1 (Candida glabrata), Q6FUW5_CANGA (protein)
# chain: MILNPALFLNKCVCIYTTLILLLLTNGGYATSSNDISLASKDPTTFPLGCSPDITTPKKGLSMELYSYDFRKKGSYPCWDAAYLDPNYPRTGYKSHRLLAKVDGVTGNINFYYHATKGCTPQLGHLPASYNYPKPLTMTNFTMLLYGYFRPKVTGFHTFTISADDLLFVNFGAGNAFDCCRRDSSADHFGNYQAYAIWGSKTAKDELTVHLDAGVYYPIRLFYNNREYDGALSFTFKTESNENTVSDFSEYFFSLDDTEEGCPGLISYDSSCASVKTSKIIGIDYHTETPNENLVPITKTIYHLGIPCTGTTTTPLCGSGFYDPLANKCVTINTSSTSSVTKTTSHTTSKEVSFHSSISSQKTLIPKSIPSPYGPIKSQSIPTEMETSSEISSSEYAFSDVISTPSHSPYTKKHSSLNSSSYTSTVIHSLTSYSISQGIFSTSLSEQNITSKSSTDKFSTATSMSNSITQSSIIISQSSTNNENYTTTSMHTSSDKISTETLNNSISTTTSILFSNSSTILKNNTTIISSDKDTHYHPVNPTIVCSTNKTEIICASITQPSISNSNNHWSSSVLRFNSTTVRSTLPSSAGSNETSINVPFSSSTESNASTSSTSTSNSKTVRSTLPSSAGSNETSINVPFSSSTESNTSTSSTSTSNSKTVRSTLPSSAGSNETSINVPFSSSTESNASTSSTSTSNSKTVRSTPFSSAGIIMTSLSQRNNKSASSYASSNSKCYNTADSCRKVHSTPSYLLTSSYTSEGVDYDCSLVSTKLKINDTNCLNNKHTTKSCLKTSVTTTIPTLEIKTARKSSSNTIGLHSYPTSSPNKSISSAPIIGYISSFKTIKTASPSYQTSDLTTITTITSLNNPGSTAVENTHESNDKSRKTSSNDISSKHSVIKETKDAVESSNKSHQTNTLKCSSIIIASSSHNSYESLGGTTLTLTLSKVYSPQNNDTLPFLEISEVNPSRTVLPESSKMMQYLTSTEERNKTARNTIATNIVSISTFHFEGEGNAIRMGYTQLLLMLIGIIVMNIGT
# Legend:
# Assay in all cases: glycan array binding signal (z-score within array); higher = stronger binding
# Conditions in all cases: glycan notation: IUPAC condensed, linker removed
# Gal(b1-3)GalNAc = molecular target: Gal(b1-3)GalNAc
# Outline: (§1)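 The Consortium for Functional Glycomics database supplied 3228 glycan arrays, of which those lacking an available protein sequence were dropped. The binding signal, a within-array Z-score, was averaged across arrays of the same protein sequence and across linkers. Negative scores can be read as non-binding.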
# [1] = molecular target: Gal(b1-3)GalNAc(b1-3)Gal(a1-4)Gal(b1-4)Glc
# Outline: as §1
# [2] = molecular target: Gal(b1-3)GalNAc(b1-3)Gal(b1-4)Glc
# Outline: as §1
# [3] = molecular target: Gal(b1-3)GalNAc(b1-3)Gal(b1-4)GlcNAc
# Outline: as §1
# [4] = molecular target: Gal(b1-3)GalNAc(b1-4)Gal(b1-4)Glc
# Outline: as §1
# [5] = molecular target: Gal(b1-3)GalNAc(b1-4)[Neu5Ac(a2-3)]Gal(b1-4)Glc
# Outline: as §1
# [6] = molecular target: Gal(b1-3)GlcNAc(b1-3)Gal(b1-3)GlcNAc
# Outline: as §1
# [7] = molecular target: Gal(b1-3)[Fuc(a1-4)]GlcNAc
# Outline: as §1
# [8] = molecular target: Gal(b1-3)[Fuc(a1-4)]GlcNAc(b1-3)Gal(b1-3)[Fuc(a1-4)]GlcNAc
# Outline: as §1
# [9] = molecular target: Gal(b1-3)[Fuc(a1-4)]GlcNAc(b1-3)Gal(b1-4)GlcNAc
# Outline: as §1
# [10] = molecular target: Gal(b1-3)[Fuc(a1-4)]GlcNAc(b1-3)Gal(b1-4)[Fuc(a1-3)]GlcNAc
# Outline: as §1
# [11] = molecular target: Gal(b1-3)[GlcNAc(b1-6)]GalNAc
# Outline: as §1
# [12] = molecular target: Gal(b1-3)[GlcNAc(b1-6)]GlcNAc
# Outline: as §1
# [13] = molecular target: Gal(b1-3)[Neu5Ac(a2-6)]GalNAc
# Outline: as §1
# [14] = molecular target: Gal(b1-3)[Neu5Ac(a2-6)]GlcNAc
# Outline: as §1
# [15] = molecular target: Gal(b1-3)[Neu5Ac(a2-6)]GlcNAc(a1-4)Gal(b1-4)Glc
# Outline: as §1
# [16] = molecular target: Gal(b1-3)[Neu5Ac(b2-6)]GlcNAc
# Outline: as §1
# [17] = molecular target: Gal(b1-4)GalNAc(a1-3)[Fuc(a1-2)]Gal(b1-4)GlcNAc
# Outline: as §1
# [18] = molecular target: Gal(b1-4)GalNAc(b1-3)[Fuc(a1-2)]Gal(b1-4)GlcNAc
# Outline: as §1
# Gal(b1-4)Glc = molecular target: Gal(b1-4)Glc
# Outline: as §1
# Gal(b1-4)Glc6S = molecular target: Gal(b1-4)Glc6S
# Outline: as §1
# Gal(b1-4)GlcNAc = molecular target: Gal(b1-4)GlcNAc
# Outline: as §1
# [19] = molecular target: Gal(b1-4)GlcNAc(b1-2)Man(a1-3)[Gal(b1-4)GlcNAc(b1-2)Man(a1-6)]Man(b1-4)GlcNAc(b1-4)GlcNAc
# Outline: as §1
# [20] = molecular target: Gal(b1-4)GlcNAc(b1-3)Gal(b1-3)GlcNAc
# Outline: as §1
# [21] = molecular target: Gal(b1-4)GlcNAc(b1-3)Gal(b1-4)Glc
# Outline: as §1
# [22] = molecular target: Gal(b1-4)GlcNAc(b1-3)Gal(b1-4)GlcNAc
# Outline: as §1
# [23] = molecular target: Gal(b1-4)GlcNAc(b1-3)Gal(b1-4)GlcNAc(b1-3)Gal(b1-4)GlcNAc
# Outline: as §1
# [24] = molecular target: Gal(b1-4)GlcNAc(b1-3)Gal(b1-4)[Fuc(a1-3)]GlcNAc(b1-3)Gal(b1-4)[Fuc(a1-3)]GlcNAc
# Outline: as §1
# [25] = molecular target: Gal(b1-4)GlcNAc(b1-3)GalNAc
# Outline: as §1
# [26] = molecular target: Gal(b1-4)GlcNAc(b1-3)[Gal(b1-4)GlcNAc(b1-6)]GalNAc
# Outline: as §1
# [27] = molecular target: Gal(b1-4)GlcNAc(b1-6)GalNAc
# Outline: as §1
# [28] = molecular target: Gal(b1-4)GlcNAc(b1-6)[Gal(b1-3)]GalNAc
# Outline: as §1
# [29] = molecular target: Gal(b1-4)GlcNAc(b1-6)[Gal(b1-3)]GlcNAc
# Outline: as §1
# Gal3S(b1-3)GalNAc = molecular target: Gal3S(b1-3)GalNAc
# Outline: as §1
# Gal3S(b1-3)GlcNAc = molecular target: Gal3S(b1-3)GlcNAc
# Outline: as §1
# [30] = molecular target: Gal3S(b1-3)[Fuc(a1-4)]GlcNAc
# Outline: as §1
# Gal3S(b1-4)Glc = molecular target: Gal3S(b1-4)Glc
# Outline: as §1
# Gal3S(b1-4)Glc6S = molecular target: Gal3S(b1-4)Glc6S
# Outline: as §1
# Gal3S(b1-4)GlcNAc = molecular target: Gal3S(b1-4)GlcNAc
# Outline: as §1
# Gal3S(b1-4)GlcNAc6S = molecular target: Gal3S(b1-4)GlcNAc6S
# Outline: as §1
# Gal3S6S(b1-4)GlcNAc = molecular target: Gal3S6S(b1-4)GlcNAc
# Outline: as §1
# Gal3S6S(b1-4)GlcNAc6S = molecular target: Gal3S6S(b1-4)GlcNAc6S
# Outline: as §1
# Gal4S(b1-4)GlcNAc = molecular target: Gal4S(b1-4)GlcNAc
# Outline: as §1
# Gal4S6S(b1-4)GlcNAc = molecular target: Gal4S6S(b1-4)GlcNAc
# Outline: as §1
# Gal6S(b1-4)Glc = molecular target: Gal6S(b1-4)Glc
# Outline: as §1
# Gal6S(b1-4)Glc6S = molecular target: Gal6S(b1-4)Glc6S
# Outline: as §1
# Gal6S(b1-4)GlcNAc = molecular target: Gal6S(b1-4)GlcNAc
# Outline: as §1
# GalNAc(a1-3)Gal = molecular target: GalNAc(a1-3)Gal
# Outline: as §1
# GalNAc(a1-3)GalNAc = molecular target: GalNAc(a1-3)GalNAc
# Outline: as §1
# [31] = molecular target: GalNAc(b1-3)Gal(a1-4)Gal(b1-4)GlcNAc
# Outline: as §1
# GalNAc(b1-4)GlcNAc = molecular target: GalNAc(b1-4)GlcNAc
# Outline: as §1
# Glc(a1-4)Glc = molecular target: Glc(a1-4)Glc
# Outline: as §1
# Glc(a1-6)Glc(a1-6)Glc = molecular target: Glc(a1-6)Glc(a1-6)Glc
# Outline: as §1
# Glc(b1-4)Glc = molecular target: Glc(b1-4)Glc
# Outline: as §1
# Glc(b1-6)Glc = molecular target: Glc(b1-6)Glc
# Outline: as §1
# GlcA(b1-3)Gal = molecular target: GlcA(b1-3)Gal
# Outline: as §1
# GlcA(b1-6)Gal = molecular target: GlcA(b1-6)Gal
# Outline: as §1
# [32] = molecular target: GlcNAc(a1-3)Gal(b1-4)GlcNAc
# Outline: as §1
# [33] = molecular target: GlcNAc(a1-6)Gal(b1-4)GlcNAc
# Outline: as §1
# [34] = molecular target: GlcNAc(b1-2)Gal(b1-3)GlcNAc
# Outline: as §1
binder,measurement,setting,value
B1,glycan array binding signal (z-score),Gal(b1-3)GalNAc,1.77
same,glycan array binding signal (z-score),[1],2.31
same,glycan array binding signal (z-score),[2],1.31
same,glycan array binding signal (z-score),[3],1.4
same,glycan array binding signal (z-score),[4],2.02
same,glycan array binding signal (z-score),[5],2.27
same,glycan array binding signal (z-score),[6],-0.151
same,glycan array binding signal (z-score),[7],-0.332
same,glycan array binding signal (z-score),[8],-0.551
same,glycan array binding signal (z-score),[9],1.75
same,glycan array binding signal (z-score),[10],-0.545
same,glycan array binding signal (z-score),[11],2.14
same,glycan array binding signal (z-score),[12],1.72
same,glycan array binding signal (z-score),[13],1.1
same,glycan array binding signal (z-score),[14],2.02
same,glycan array binding signal (z-score),[15],1.84
same,glycan array binding signal (z-score),[16],0.26
same,glycan array binding signal (z-score),[17],1.99
same,glycan array binding signal (z-score),[18],2.42
same,glycan array binding signal (z-score),Gal(b1-4)Glc,2.22
same,glycan array binding signal (z-score),Gal(b1-4)Glc6S,2.26
same,glycan array binding signal (z-score),Gal(b1-4)GlcNAc,1.6
same,glycan array binding signal (z-score),[19],1.98
same,glycan array binding signal (z-score),[20],1.03
same,glycan array binding signal (z-score),[21],1.98
same,glycan array binding signal (z-score),[22],2.02
same,glycan array binding signal (z-score),[23],1.8
same,glycan array binding signal (z-score),[24],2.04
same,glycan array binding signal (z-score),[25],2.41
same,glycan array binding signal (z-score),[26],2.16
same,glycan array binding signal (z-score),[27],2.06
same,glycan array binding signal (z-score),[28],1.83
same,glycan array binding signal (z-score),[29],2.48
same,glycan array binding signal (z-score),Gal3S(b1-3)GalNAc,-0.554
same,glycan array binding signal (z-score),Gal3S(b1-3)GlcNAc,-0.553
same,glycan array binding signal (z-score),[30],-0.55
same,glycan array binding signal (z-score),Gal3S(b1-4)Glc,-0.552
same,glycan array binding signal (z-score),Gal3S(b1-4)Glc6S,-0.553
same,glycan array binding signal (z-score),Gal3S(b1-4)GlcNAc,-0.553
same,glycan array binding signal (z-score),Gal3S(b1-4)GlcNAc6S,-0.55
same,glycan array binding signal (z-score),Gal3S6S(b1-4)GlcNAc,-0.526
same,glycan array binding signal (z-score),Gal3S6S(b1-4)GlcNAc6S,-0.544
same,glycan array binding signal (z-score),Gal4S(b1-4)GlcNAc,-0.551
same,glycan array binding signal (z-score),Gal4S6S(b1-4)GlcNAc,-0.549
same,glycan array binding signal (z-score),Gal6S(b1-4)Glc,1.86
same,glycan array binding signal (z-score),Gal6S(b1-4)Glc6S,2.71
same,glycan array binding signal (z-score),Gal6S(b1-4)GlcNAc,1.74
same,glycan array binding signal (z-score),GalNAc(a1-3)Gal,-0.545
same,glycan array binding signal (z-score),GalNAc(a1-3)GalNAc,-0.554
same,glycan array binding signal (z-score),[31],-0.558
same,glycan array binding signal (z-score),GalNAc(b1-4)GlcNAc,-0.552
same,glycan array binding signal (z-score),Glc(a1-4)Glc,-0.551
same,glycan array binding signal (z-score),Glc(a1-6)Glc(a1-6)Glc,-0.555
same,glycan array binding signal (z-score),Glc(b1-4)Glc,-0.554
same,glycan array binding signal (z-score),Glc(b1-6)Glc,-0.553
same,glycan array binding signal (z-score),GlcA(b1-3)Gal,-0.555
same,glycan array binding signal (z-score),GlcA(b1-6)Gal,1.46
same,glycan array binding signal (z-score),[32],-0.551
same,glycan array binding signal (z-score),[33],2.27
same,glycan array binding signal (z-score),[34],-0.549
